According to article PMC12136788:
Some of the results follow.

T1: UNK ZnF1-3 (human, UniProt Q9C0B0 31-174)
T1 sequence: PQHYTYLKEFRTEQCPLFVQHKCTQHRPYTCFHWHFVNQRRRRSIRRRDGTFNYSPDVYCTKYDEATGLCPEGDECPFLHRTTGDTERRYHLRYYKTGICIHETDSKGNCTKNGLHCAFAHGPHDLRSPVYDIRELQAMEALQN

B1: 102510691_102510811_12989_CDS_ENSG00000197102_ENST00000360184|human|control|control (ssRNA)
RNA: GGGAGUUCUACAGUCCGACGAUCUUGAAUGUCUUUAUGUCCGUCGACCUUGCAUGCCAGCUUAAACUCACUGUCGAAACUCCUGGUUGUGAACAGGCGCUCCAGGAAGGUGUUGAGCAGACGCUGGUCAAACUCGUUGUCCACCAACAGAGGAUUGAGCAUCA
B2: chr17:1756424:1756425:+_ENSG00000132383_ENST00000254719|hu_hu|FALSE|FALSE (ssRNA)
RNA: GGGAGUUCUACAGUCCGACGAUCAUAGGGCACUGGAUUGCCAAUCUUCACUCCAACUGCUUCAGCUGACUUCAAAACUUCUAAUUCCAUCAAGAUAACUACUCUCCUUCCGUCUUUCAGAGUGUUCACAAUAAAUCUGUGAAUCAACAGAGGAUUGAGCAUCA
B3: 97146933_97147053_736_CDS_ENSMUSG00000050079_ENSMUST00000060389|mouse|control|control (ssRNA)
RNA: GGGAGUUCUACAGUCCGACGAUCAACAUUGUCUUCUGCUCCACUGUCAUCUCGGCAGAUGCAGGAAUUACCCAUAGUAGCAGUGGCACCUGUAGUCCCCAAUAGGUGGGCUAUGUGCUCCUCAAGAGUCAGCAGCAGACCCUGCAACAGAGGAUUGAGCAUCA
B4: 3419383_3419591_756_3pUTR_ENSMUSG00000024231_ENSMUST00000080089|mouse|control|control (ssRNA)
RNA: GGGAGUUCUACAGUCCGACGAUCUCUUGCUUGUAAUAUUCUCCCGUUUCAGUCAGAAAGGGAGACACGAAUAUUCCCUGAUAAAACUUUAAGGGAAAUUUUUUCUUAUACUGUUCAACAUGAACAAAGGAGUUAAUAACCCCACAACAGAGGAUUGAGCAUCA
B5: chr4:57889662:57889663:+_ENSG00000047315_ENST00000314595|hu_mus|FALSE|FALSE (ssRNA)
RNA: GGGAGUUCUACAGUCCGACGAUCGUUGAGAGUGACCAUGACCUGGUCCACGAUGCCCGUCUCACUAGUUCUGAGGAAAGUGCUGCAGUCCCUCUUGGUGUAGCGCCUGUUGGUGCUCUCCAGCUCAUCCUCGUUCUCGGGUAACAACAGAGGAUUGAGCAUCA
B6: 33856616_33856736_4179_3pUTR_ENSMUSG00000042197_ENSMUST00000044455|mouse|control|control (ssRNA)
RNA: GGGAGUUCUACAGUCCGACGAUCAACGAGCUGAAGCAGGCCCAAUGCUGCACAAAGACAUGUGCAAACUUGCCCCAGUAGAGUCUGGGUGGUUAGCCCUUUCUCAGAGGAAACCUGCACUGCUCCAGUCAUGGGCUAAAGUCUCAACAGAGGAUUGAGCAUCA
B7: chr15:103030146:103030147:-_ENSMUSG00000009575_ENSMUST00000118152|mus_mus|FALSE|FALSE (ssRNA)
RNA: GGGAGUUCUACAGUCCGACGAUCUUUGUUUUCCGCAUCCUCUGGAUAUGCGUGCCACGUCAGUCUCUCUUCAUAAAAUGCUAUCACAAUCUGUGGACACUUCACGUUAGCUUCUUUUGCAAGAACCAGGUCAGCUUCAUCUGUCAACAGAGGAUUGAGCAUCA
B8: chr2:48026839:48026840:+_ENSG00000116062_ENST00000540021|hu_hu|hu_hu_hu_mus_False|18_108 (ssRNA)
RNA: GGGAGUUCUACAGUCCGACGAUCAUAGUGUGCCACUAGCGUCCUAAAUCUGGAACAGUGGCGGUCAUCCGAAAACUGGCCGAUGAAAAACUUGCCCAGUGAAGUGUCCACAAAGCACACACCAUAUACACGAGUGUGACCAGACAACAGAGGAUUGAGCAUCA
B9: chr4:81121375:81121376:+_ENSG00000152784_ENST00000415738|hu_hu|FALSE|FALSE (ssRNA)
RNA: GGGAGUUCUACAGUCCGACGAUCUACCCGAAAGAUAUACGGUACUGUUCUCUUGUCAGUAGACUUGAGAGCUAUGAAAGCUAUGCUGUCAUAUAGGGAAGUAUGGCUCAGGACACAGGGACCAAAUAUAGCAUUCUCAGGGAUCAACAGAGGAUUGAGCAUCA
B10: 67236988_67238599_921_3pUTR_ENSMUSG00000031605_ENSMUST00000034017|mouse|control|control (ssRNA)
RNA: GGGAGUUCUACAGUCCGACGAUCUAAUCUUUGCACGCACUGCUGUUCUUCACCAAUGCUUCCUCUUCAACCCGCUGCACCAAGUACUCCCGAGGAAGCAGAGGUAAUCGGACAUGCUCCAUGAGCCGAGCCAUGAACUCCUGUCAACAGAGGAUUGAGCAUCA
B11: 165881002_165881122_2492_3pUTR_ENSMUSG00000027678_ENSMUST00000088095|mouse|control|control (ssRNA)
RNA: GGGAGUUCUACAGUCCGACGAUCUCUUAAUUUUGGGGUCUUUCUCUUGGCCAGAGCUGGGAUUGGUGGAGCAGCUGCACUGACUCAGUUUACUGUCCCCACUGUCGGCCUGGGGCUGCAGCUCUUUGGCAAGCACAUCACUGGCAACAGAGGAUUGAGCAUCA
B12: chr21:32491406:32491407:-_ENSG00000156299_ENST00000286827|hu_mus|FALSE|FALSE (ssRNA)
RNA: GGGAGUUCUACAGUCCGACGAUCAACCCUUCUUAAGGAAUGGACAUUGUGAAAUGGGGAGGAGGAGGGCGGAACAAAAAGCUAUAAACCUUUUUUUUUUUAAAAAUGAAAGUGCUAGAAUGGGUUUUGUUCUUCCUGUCUGGACAACAGAGGAUUGAGCAUCA
B13: chr18:25636641:25636642:-_ENSMUSG00000024268_ENSMUST00000025117|mus_mus|motif|central (ssRNA)
RNA: GGGAGUUCUACAGUCCGACGAUCUCAUUUACCAAAGAUAAAUAUCGUGCUUUCAUUAAAUAGUUUUCCUUGUUUUUUCUCGGUCAUUACAAUUAAAAGUCCUACAAAAUAUGCAAAUUUAUUUACAGAAAAACAGAGCCAGCACAACAGAGGAUUGAGCAUCA
B14: chr1:84735391:84735392:-_ENSMUSG00000026219_ENSMUST00000027421|perfect_dup|FALSE|FALSE (ssRNA)
RNA: GGGAGUUCUACAGUCCGACGAUCCAUUGCCCGGUCCCGAUCAAAUGCAGUUACAUAAAAAAGCAUUUGUCGGGUAUCAAAAGGAAAGAAAAAUGGGCAGGUUUUUCCUAGCUCAGUGAGCCAUGUUGGGAUGUUUCCUGUCAUCAACAGAGGAUUGAGCAUCA
B15: chr7:90019461:90019462:+_ENSMUSG00000057706_ENSMUST00000082237|mus_hu|motif|central (ssRNA)
RNA: GGGAGUUCUACAGUCCGACGAUCCGUCACAAUUGUGUGAUUAUUAAAAUAAUACAGUGUUCUUUGCCAUAAGGCCAUACGGAAAUAAAAAGAUUUAACCCAGCUACAAAAAAGUUCACUGAACUUAAAUUAAAAUACUUGUAACAACAGAGGAUUGAGCAUCA
B16: 44746294_44746414_122_CDS_ENSMUSG00000022668_ENSMUST00000162512|mouse|control|control (ssRNA)
RNA: GGGAGUUCUACAGUCCGACGAUCCCGCAGCGGGUACACUACCUUCGUUAGCUGUUUCUGUGGCAGCCUUAGCACUUCUGCGAAGGCAGGGGACGUGCUGUAAACCCGGGUCCAAGGCCCCAGUGCUGGCGCUUUCUCAAGGAGCAACAGAGGAUUGAGCAUCA
B17: chr16:13788901:13788902:+_ENSMUSG00000022682_ENSMUST00000023363|mus_mus|motif|central (ssRNA)
RNA: GGGAGUUCUACAGUCCGACGAUCGAUGUUUAUAAGUUGCUCAAAGUCUUUUGUCAAGUACAUGACAGAGGAACGAAAUUCGGGUAGCCAGUUAAUGAUCUGGUCAUCCUUUAUAUCAGGAUCAGACAGCUGGUUCUUCAACAACAACAGAGGAUUGAGCAUCA
B18: chr2:5814250:5814251:-_ENSMUSG00000025816_ENSMUST00000102981|mus_hu|mus_mus_mus_hu_True|78_78 (ssRNA)
RNA: GGGAGUUCUACAGUCCGACGAUCUUCCUUUCCGGUUUCUGAAUUUCUGGUAGAACUGCACAGAAAGGUUUGAUAACUUCUAAAAAUUUGAUGCCCAUGGCUGCUGCUGGGGAGGCCCAGGGGGAAACCGCGGCCUCGGCGCUGCAACAGAGGAUUGAGCAUCA
B19: chr17:87832841:87832842:-_ENSMUSG00000036438_ENSMUST00000040440|perfect_dup|FALSE|FALSE (ssRNA)
RNA: GGGAGUUCUACAGUCCGACGAUCUAUACAACUUGGAAUGGAUUUUGAGGCAAAUUGUGCCAUAAGCAGAUUUUAAGUGGCUAAACAAAGUUUAAAAAGCAAGUAACAAUAAAAGAAAAUGUUUCUGGUACAGGACCAGCAGUACAACAGAGGAUUGAGCAUCA
B20: chr14:102368134:102368135:+_ENSG00000078304_ENST00000445439|hu_hu|FALSE|FALSE (ssRNA)
RNA: GGGAGUUCUACAGUCCGACGAUCGAGGGGUUCCAUGAUCUUCACAAAUUCUGAUGGUUCAAUGACAUCUAAAAUCUCUUCUAAUUCGUUUAAGAACAUUACUUCUUUUGGACUGUGAGUCUUUGGCCAGUAUUUGAGAAGUGCCAACAGAGGAUUGAGCAUCA
B21: 137498895_137499015_2185_CDS_ENSG00000112983_ENST00000230901|human|control|control (ssRNA)
RNA: GGGAGUUCUACAGUCCGACGAUCGCCAUCAUCACUCUCGCUCACAGGAGGUUCAUUAUCCAUUUCUGACAAGUAGCCUUCUCCUUGAUCCUCUUCCUUAGGCUCCUCUAGGCUGGCCGCUUCACUGACACCAUCUUCCUCCUCCAACAGAGGAUUGAGCAUCA
B22: chr2:181286759:181286760:+_ENSMUSG00000000826_ENSMUST00000072334|mus_hu|motif|central (ssRNA)
RNA: GGGAGUUCUACAGUCCGACGAUCGCUGCACUAACAACAUAGAGAACUAGGAAAGUUCACAAACACUGAGCAGUAAUAUCGGAAGCAGUUUAAAAAUAAAGCCAAAAGGAAGACAAAAAAAUCCCACGUCACUGAGUGGAGACACAACAGAGGAUUGAGCAUCA

biological target: T1, UNK ZnF1-3; experiment: nsRBNS (natural sequence RNA bind-n-seq); RBNS binding buffer (assumed for nsRBNS): 25 mM Tris pH 7.5, 150 mM KCl, 3 mM MgCl2, 0.01% Triton X-100, 500 ug/ml BSA, 20 U/ml SUPERase-In, 4 C; UNK is unkempt and MSI1 is Musashi-1; names of the RNAs are library labels; protein concentration not given here; high values mean tight binding

For B1, which binding signal is on record?
The binding signal was 0.658 enrichment R.

For B2, which binding signal is on record?
The binding signal was 0.849 enrichment R.

Which binding signal does the source give for B3 here?
The binding signal was 0.744 enrichment R.

How did the binding signal turn out when B4 was run?
The binding signal was 0.582 enrichment R.

With B5 as the binder, how does the binding signal read?
Its binding signal is 0.539 enrichment R.

Which binding signal does the source give for B6 here?
Its binding signal is 0.539 enrichment R.

How did the binding signal turn out when B7 was run?
The binding signal was 0.743 enrichment R.

Which binding signal does the source give for B8 here?
The binding signal was 1.13 enrichment R.

With B9 as the binder, how does the binding signal read?
The binding signal was 1.41 enrichment R.

For B10, which binding signal is on record?
The binding signal was 0.73 enrichment R.

How did the binding signal turn out when B11 was run?
Its binding signal is 0.866 enrichment R.

For B12, which binding signal is on record?
The binding signal was 2.2 enrichment R.

B13 was tested. Which binding signal did it give?
The binding signal was 0.994 enrichment R.

How did the binding signal turn out when B14 was run?
The binding signal was 0.656 enrichment R.

Which binding signal does the source give for B15 here?
Its binding signal is 1.45 enrichment R.

B16 was tested. Which binding signal did it give?
Its binding signal is 1.01 enrichment R.

Which binding signal does the source give for B17 here?
Its binding signal is 1.01 enrichment R.

With B18 as the binder, how does the binding signal read?
The binding signal was 1.4 enrichment R.

How did the binding signal turn out when B19 was run?
Its binding signal is 0.947 enrichment R.

B20 was tested. Which binding signal did it give?
The binding signal was 0.82 enrichment R.

With B21 as the binder, how does the binding signal read?
The binding signal was 0.688 enrichment R.

Which binding signal does the source give for B22 here?
Its binding signal is 2.51 enrichment R.
